Assay results: the supplement of paper PMC4967469
By IC50 is meant the dose at which the fit gives 50% viability; a fit beyond the top or the lowest dose is shown as a bound at that dose. The AUC spans the tested range (256-fold, ending at the top dose) of the same fit; values near 1 show little effect. For some of these results: Any top dose called inferred comes from the curve model; the source does not state it. For some of these results: Where an entry number is given, a second screen of the drug exists; the two often differ.

What was measured:
Experiment in all cases: Viability of human cancer cell lines after 72 h of drug (GDSC screen)
[1] = compound: CC1(C)CNc2cc(NC(=O)c3cccnc3NCc3ccncc3)ccc21 [AMG-706]; conditions: top dose 2 µM; top dose inferred
Method: (§1)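 Human cancer cell lines in 384-well plates, medium with 10% serum, drug for 72 h over a 256-fold dose range (nine 2-fold or five 4-fold steps up to the top dose). Adherent lines were fixed and stained with the nucleic acid dye Syto60, suspension lines read with resazurin; signal relative to control wells, capped at 0 and 100%. One two-parameter sigmoid per drug and line, fitted in a mixed model over all curves with the slope shared within a line.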

[2] = compound: CC1=C2C[C@H]3[C@@H](CC=C4C[C@@H](O)CC[C@@]43C)[C@@H]2CC[C@]12O[C@@H]1C[C@H](C)CN[C@H]1[C@H]2C [Cyclopamine]; conditions: top dose 16 µM; top dose inferred
Method: as §1

[3] = compound: O=C(/C=C/c1cccc(S(=O)(=O)Nc2ccccc2)c1)NO [Belinostat]; conditions: top dose 20 µM; top dose inferred
Method: as §1

[4] = compound: COCC[n+]1c2c(n(Cc3cnccn3)c1C)C(=O)c1ccccc1C2=O [YM155]; conditions: top dose 5.12 µM
Method: as §1

[5] = compound: CCOc1nc(NC(=O)Cc2cc(OC)ccc2OC)cc(N)c1C#N [JNK Inhibitor VIII]; conditions: top dose 10 µM; top dose inferred
Method: as §1

[6] = compound: Cc1[nH]c(/C=C2\C(=O)Nc3ccc(S(=O)(=O)Cc4c(Cl)cccc4Cl)cc32)c(C)c1C(=O)N1CCC[C@@H]1CN1CCCC1 [PHA-665752]; conditions: top dose 2 µM
Method: as §1

[7] = compound: Cc1sc2c(c1C)C(c1ccc(Cl)cc1)=N[C@@H](CC(=O)OC(C)(C)C)c1nnc(C)n1-2 [JQ1]
Method: as §1

[8] = compound: CC(=O)O[C@@]12CO[C@@H]1C[C@H](O)[C@@]1(C)C(=O)[C@H](O)C3=C(C)[C@@H](OC(=O)[C@H](O)[C@@H](NC(=O)OC(C)(C)C)c4ccccc4)C[C@@](O)([C@@H](OC(=O)c4ccccc4)[C@H]21)C3(C)C [Docetaxel]; conditions: top dose 0.0125 µM
Method: as §1

[9] = compound: C[C@]1(O)C[C@@H](c2nc(-c3ccc4ccc(-c5ccccc5)nc4c3)c3c(N)nccn32)C1 [OSI-906]; conditions: top dose 2.56 µM; top dose inferred
Method: as §1

[10] = compound: c1ccc2c(CCNc3ccc(Nc4ccncc4)cc3)c[nH]c2c1 [JNJ-26854165]; conditions: top dose 10 µM
Method: as §1

[11] = compound: OCCCNc1cc(-c2ccnc(Nc3cccc(Cl)c3)n2)ccn1 [CGP-60474]; conditions: top dose 0.256 µM; top dose inferred
Method: as §1

[12] = compound: Cc1ccc(C(=O)N(CCCN)[C@@H](c2nc3cc(Cl)ccc3c(=O)n2Cc2ccccc2)C(C)C)cc1 [SB-715992]; conditions: top dose 0.128 µM; top dose inferred
Method: as §1

[13] = compound: COC(=O)[C@H](CCSC)NC(=O)c1ccc(NC[C@@H](N)CS)cc1-c1ccccc1 [FTI-277]; conditions: top dose 1.024 µM; top dose inferred
Method: as §1

[14] = compound: CN1CCN(c2ccc([N+](=O)[O-])c3no[n+]([O-])c23)CC1 [NSC-207895]; conditions: top dose 20 µM; top dose inferred
Method: as §1

[15] = top dose 1 µM, screen: GDSC drug entry 1218, top dose inferred
[16] = top dose 2.56 µM, screen: GDSC drug entry 163

Row | Cell Line | AUC [1] | IC50 [1] | AUC [2] | IC50 [2] | AUC [3] | IC50 [3] | AUC [4] | IC50 [4] | AUC [5] | IC50 [5] | AUC [6] | IC50 [6] | AUC [7, 15] | IC50 [7, 15] | AUC [7, 16] | IC50 [7, 16] | AUC [8] | IC50 [8] | AUC [9] | IC50 [9] | AUC [10] | IC50 [10] | AUC [11] | IC50 [11] | AUC [12] | IC50 [12] | AUC [13] | IC50 [13] | AUC [14] | IC50 [14]
1 | KGN (ovary, adherent) | 0.97 | > 2 µM | 0.975 | > 16 µM | 0.316 | 0.339 µM | 0.057 | < 0.02 µM | 0.973 | > 10 µM | 0.98 | > 2 µM | 0.958 | > 1 µM | 0.43 | 0.0988 µM | 0.668 | 0.00255 µM | 0.902 | > 2.56 µM | 0.61 | 1.34 µM | 0.492 | 0.0151 µM | 0.635 | 0.0205 µM | 0.911 | > 1.02 µM |  | 
2 | KP-N-YS (neuroblastoma, adherent) |  |  | 0.972 | > 16 µM | 0.354 | 0.462 µM | 0.504 | 0.329 µM |  |  | 0.967 | > 2 µM |  |  | 0.596 | 0.305 µM |  |  | 0.965 | > 2.56 µM |  |  | 0.766 | 0.108 µM | 0.648 | 0.0219 µM | 0.978 | > 1.02 µM |  | 
3 | KURAMOCHI (ovary, adherent) | 0.949 | > 2 µM |  |  | 0.48 | 1.1 µM | 0.043 | < 0.02 µM | 0.957 | > 10 µM | 0.98 | > 2 µM |  |  |  |  | 0.861 | > 0.0125 µM | 0.98 | > 2.56 µM | 0.892 | > 10 µM | 0.641 | 0.042 µM | 0.948 | > 0.128 µM | 0.967 | > 1.02 µM | 0.984 | > 20 µM
4 | MC116 (B-cell lymphoma, suspension) | 0.999 | > 2 µM | 0.962 | 15.1 µM | 0.162 | 0.19 µM | 0.003 | < 0.02 µM | 0.999 | > 10 µM | 0.999 | > 2 µM |  |  |  |  | 0.933 | 0.00925 µM | 0.997 | > 2.56 µM | 0.999 | > 10 µM | 0.685 | 0.0446 µM | 0.569 | 0.0117 µM | 0.996 | > 1.02 µM | 0.941 | 15.6 µM
5 | MV-4-11 (leukaemia, suspension) | 0.887 | 1.54 µM | 0.969 | > 16 µM | 0.193 | 0.192 µM | 0.202 | 0.0523 µM | 0.98 | > 10 µM | 0.872 | 1.35 µM |  |  |  |  |  |  |  |  | 0.628 | 1.31 µM | 0.66 | 0.0405 µM | 0.422 | 0.00509 µM | 0.988 | > 1.02 µM | 0.941 | > 20 µM
6 | NB7 (neuroblastoma, adherent) | 0.983 | > 2 µM | 0.976 | > 16 µM | 0.364 | 0.516 µM | 0.029 | < 0.02 µM | 0.986 | > 10 µM | 0.975 | > 2 µM | 0.905 | > 1 µM | 0.606 | 0.318 µM |  |  | 0.974 | > 2.56 µM | 0.935 | > 10 µM | 0.961 | > 0.256 µM | 0.835 | 0.0894 µM | 0.985 | > 1.02 µM | 0.364 | 0.517 µM
7 | NCI-H322M (lung adenocarcinoma, suspension) | 0.987 | > 2 µM |  |  | 0.548 | 1.75 µM | 0.132 | < 0.02 µM | 0.986 | > 10 µM | 0.967 | > 2 µM | 0.975 | > 1 µM | 0.96 | > 2.56 µM | 0.984 | > 0.0125 µM | 0.969 | > 2.56 µM | 0.987 | > 10 µM | 0.889 | > 0.256 µM | 0.982 | > 0.128 µM | 0.982 | > 1.02 µM | 0.963 | > 20 µM
8 | SNB75 (glioma, adherent) | 0.955 | > 2 µM | 0.954 | > 16 µM | 0.565 | 2.04 µM | 0.314 | 0.0749 µM | 0.962 | > 10 µM | 0.972 | > 2 µM | 0.957 | > 1 µM | 0.547 | 0.228 µM |  |  | 0.858 | > 2.56 µM | 0.944 | > 10 µM | 0.563 | 0.0257 µM | 0.946 | > 0.128 µM | 0.971 | > 1.02 µM | 0.978 | > 20 µM
9 | SNU-C2B (large intestine, adherent) | 0.977 | > 2 µM |  |  | 0.371 | 0.49 µM | 0.094 | < 0.02 µM | 0.98 | > 10 µM | 0.978 | > 2 µM | 0.978 | > 1 µM | 0.744 | 1.02 µM | 0.815 | 0.00983 µM | 0.892 | > 2.56 µM | 0.787 | 5.9 µM | 0.785 | 0.148 µM | 0.704 | 0.0366 µM | 0.976 | > 1.02 µM | 0.959 | > 20 µM
10 | TE-441-T (rhabdomyosarcoma, adherent) |  |  | 0.982 | > 16 µM |  |  |  |  |  |  | 0.878 | 1.89 µM |  |  | 0.914 | > 2.56 µM |  |  | 0.861 | 2.04 µM |  |  | 0.652 | 0.0414 µM | 0.856 | 0.0967 µM | 0.989 | > 1.02 µM |  | 
